Results as given in patent US20220389066A1 (Affibody, published 2022).
Substitutions are numbered along the chain they refer to. Names and notes keep the numbering of the source.

T1: HMGB1(disulfide), disulfide linked form of full-length HMGB1 (HMGB1C23-C45C106h) (rat, UniProt P63159 1-215, disulfide C23-C45; C106 reduced)
T1 construct: unlabelled in Biacore and Attana; also called b-HMGB1(disulfide)
T1 sequence: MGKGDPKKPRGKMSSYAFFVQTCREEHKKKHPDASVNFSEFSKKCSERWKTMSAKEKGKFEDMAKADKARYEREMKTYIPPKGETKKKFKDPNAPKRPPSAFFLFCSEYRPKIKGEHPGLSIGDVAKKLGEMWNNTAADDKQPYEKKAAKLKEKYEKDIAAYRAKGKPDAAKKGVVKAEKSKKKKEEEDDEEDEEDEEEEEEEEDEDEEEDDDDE

T2: HMGB1(red), fully reduced form of full-length HMGB1 (HMGB1C23hC45hC106h) (rat, UniProt P63159 1-215, all cysteines reduced (C23h, C45h, C106h))
T2 construct: Produced by HMGBiotech; also called HMGB1(reduced); b-HMGB1(red)
T2 sequence: T1 sequence

B1: His6-tagged ZH15 (ZH 01 W10A), MGSSHHHHHHLQ-[ZH15]-VD (designed binder)
chain: MGSSHHHHHHLQVDAKYAKEDADAFWEIIWLPNLTDAQQRAFIYKLEDDPSQSSELLSEAKKLNDSQAPKVD
B2: His6-tagged ZH17 (ZH 01 F13A), MGSSHHHHHHLQ-[ZH17]-VD (designed binder)
chain: B1 chain with A22W, F25A
B3: His6-tagged ZH18 (ZH 01 W14A), MGSSHHHHHHLQ-[ZH18]-VD (designed binder)
chain: B1 chain with A22W, W26A
B4: His6-tagged ZH19 (ZH 01 I17A), MGSSHHHHHHLQ-[ZH19]-VD (designed binder)
chain: B1 chain with A22W, I29A
B5: His6-tagged ZH24 (ZH 01 R28A), MGSSHHHHHHLQ-[ZH24]-VD (designed binder)
chain: B1 chain with A22W, R40A
B6: His6-tagged ZH25 (ZH 01 Y32A), MGSSHHHHHHLQ-[ZH25]-VD (designed binder)
chain: B1 chain with A22W, Y44A
B7: His6-tagged ZH26 (ZH 01 E35A), MGSSHHHHHHLQ-[ZH26]-VD (designed binder)
chain: B1 chain with A22W, E47A
B8: ZZA4012, Z(boxB)-L1-Z(boxA)-ABD (designed binder)
chain: VDAKYAKEAWLAEQEIWQLPNLTEAQFQAFILKLIDDPSQSSELLSEAKKLNDSQAPKGAPGGGGSGGGGSGGGGSTSVDAKYAKEDWDAFWEIIWLPNLTDAQQRAFIYKLEDDPSQSSELLSEAKKLNDSQAPKASGSLAEAKEAANAELDSYGVSDFYKRLIDKAKTVEGVEALKDAILAALP
notes: Heterodimer of ZH01 and ZH31 with PP013
B9: ZZA4013, Z(boxB)-L2-Z(boxA)-ABD (designed binder)
chain: VDAKYAKEAWLAEQEIWQLPNLTEAQFQAFILKLIDDPSQSSELLSEAKKLNDSQAPKGAPGGGGSTSVDAKYAKEDWDAFWEIIWLPNLTDAQQRAFIYKLEDDPSQSSELLSEAKKLNDSQAPKASGSLAEAKEAANAELDSYGVSDFYKRLIDKAKTVEGVEALKDAILAALP
notes: as for B8
B10: ZAZ4015, Z(boxA)-ABD-L3-Z(boxB) (designed binder)
chain: VDAKYAKEDWDAFWEIIWLPNLTDAQQRAFIYKLEDDPSQSSELLSEAKKLNDSQAPKASGSLAEAKEAANAELDSYGVSDFYKRLIDKAKTVEGVEALKDAILAALPGTGGGGSVDAKYAKEAWLAEQEIWQLPNLTEAQFQAFILKLIDDPSQSSELLSEAKKLNDSQAPK
notes: Heterodimer of ZH01 and ZH31 with PP013 in the middle
B11: ZZA4053, Z(boxA)-L1-Z(boxA)-ABD (designed binder)
chain: AEAKYAKEDWDAFWEIIWLPNLTDAQQRAFIYKLEDDPSQSSELLSEAKKLNDSQAPKGAPGGGGSGGGGSGGGGSTSAEAKYAKEDWDAFWEIIWLPNLTDAQQRAFIYKLEDDPSQSSELLSEAKKLNDSQAPKASGSLAEAKEAANAELDSYGVSDFYKRLIDKAKTVEGVEALKDAILAALP
notes: Homodimer of ZH27 with PP013
B12: ZZA4010, Z(boxA)-L1-Z(boxB)-ABD (designed binder)
chain: VDAKYAKEDWDAFWEIIWLPNLTDAQQRAFIYKLEDDPSQSSELLSEAKKLNDSQAPKGAPGGGGSGGGGSGGGGSTSVDAKYAKEAWLAEQEIWQLPNLTEAQFQAFILKLIDDPSQSSELLSEAKKLNDSQAPKASGSLAEAKEAANAELDSYGVSDFYKRLIDKAKTVEGVEALKDAILAALP
notes: as for B8
B13: ZZA4262, Z(boxB)-L1-Z(boxA)-ABD (designed binder)
chain: B8 chain with V1A, D2E, V79A, D80E
notes: Heterodimer of ZH27 and ZH32 with PP013
B14: ZZA4261, Z(boxA)-L2-Z(boxB)-ABD (designed binder)
chain: AEAKYAKEDWDAFWEIIWLPNLTDAQQRAFIYKLEDDPSQSSELLSEAKKLNDSQAPKGAPGGGGSTSAEAKYAKEAWLAEQEIWQLPNLTEAQFQAFILKLIDDPSQSSELLSEAKKLNDSQAPKASGSLAEAKEAANAELDSYGVSDFYKRLIDKAKTVEGVEALKDAILAALP
notes: as for B13

biological target: T1, HMGB1(disulfide), disulfide linked form …; test: SPR (Biacore 2000); target immobilized on CM5, His6-Z variant injected 50-1350 nM; 1:1 model
Method: (§1) Binding analysis of mutated Z variants: A binding analysis was performed using a Biacore 2000 instrument. All alanine mutated Z variants, together with the original Z variant ZH 01, were analyzed against GST-boxA(red), HMGB1(red), boxA(disulfide) and HMGB1(disulfide). The immobilizations and Biacore analyses were performed essentially as described in Example 3. However, in these analyses, the different targets were directly coupled to separate flow cells of different CM5 chip surfaces and a flow rate of 30 μl/min was used. The ligand immobilization levels on the surfaces were 1410 RU for GST-boxA(red), 1380 RU for HMGB1(red), 540 RU for boxA(disulfide) and 2900 RU for HMGB1(disulfide). The analytes, i.e. the Z variants, were each diluted in HBS-EP buffer (or in HBS-EP+2 mM DTT for use in analysis with reduced targets GST-boxA(red) and HMGB1(red)), within a concentration range of 50 to 1350 nM and injected for 3 min, followed by dissociation in running buffer for 35 min. No regeneration buffer was used in the analyses. Instead, the dissociation time was enough for all binders to dissociate from the chip surfaces. HBS-EP was used as running buffer for targets boxA(disulfide) and HMGB1(disulfide) while HBS-EP+2 mM DTT was used for reduced targets GST-boxA(red) and HMGB1(red). The dissociation constants were calculated as in Example 3.
(§2) Binding analysis of mutated Z variants: The interaction of HMGB1 with ZH 01 and the 13 mutated variants thereof was analyzed in a Biacore instrument by injecting various concentrations of the Z variants over surfaces containing immobilized GST-boxA(red), HMGB1(red), boxA(disulfide) and HMGB1(disulfide), respectively. A summary of the dissociation constants from the experiments, which were obtained by using a 1:1 interaction model, is given in Table 12.

| Binder | Kd |
| --- | --- |
| B1 | 12000 nM |
| B2 | 6800 nM |
| B3 | 2200 nM |
| B4 | 3100 nM |
| B5 | 7800 nM |
| B6 | 7800 nM |
| B7 | 2400 nM |

biological target: T2, HMGB1(red), fully reduced form of …; test: as above
Method: as §1, §2

| Binder | Kd |
| --- | --- |
| B1 | 570 nM |
| B3 | 290 nM |
| B5 | 680 nM |
| B7 | 110 nM |

biological target: T3, GST-boxA(red), reduced form of A-box domain of HMGB1 with N-terminal GST tag (human, cysteines reduced); test: as above
T3 construct: Used biotinylated (b-GST-boxA(red)) in ELISA; also called b-GST-boxA(red)
Method: as §1, §2

| Binder | Kd |
| --- | --- |
| B3 | 370 nM |
| B7 | 220 nM |

biological target: T2, HMGB1(red), fully reduced form of …; test: cell-based or functional assay

| Binder | IC50 of inhibition of HMGB1 induced cell migration |
| --- | --- |
| B8 | ≤ 0.1 nM |
| B9 | 0.2 nM |
| B10 | > 1 nM |

biological target: T2, HMGB1(red), fully reduced form of …; test: QCM (Attana A200); polypeptide captured on HSA, HMGB1(red) injected, 2 mM DTT; 1:1 or 1:2 model, average KD
Method: (§3) Binding analysis: The Attana A200® biosensor was used to characterize interactions between the dimeric polypeptides (SEQ ID NO:38-48) and HMGB1(red) under reducing conditions and/or HMGB1(disulfide) under non-reducing conditions. The monomeric ZA3812 (SEQ ID NO:35) was included for comparison. The experiment was performed as a capture assay, in which HSA was immobilized on Attana's sensor chip Low-NonSpecific-Binding (LNB). Immobilization was performed using amine coupling. The instrument has two sensor surfaces and HSA was immobilized on both surfaces. Around 110 Hz of HSA was stably immobilized on the surfaces.
(§4) In the kinetic experiment, HBS-EP+/−2 mM DTT was used as running buffer and the flow rate was 25 μl/min at 22° C. In each cycle, one polypeptide was tested against one concentration of HMGB1. […] The analyte HMGB1(reduced) was diluted in HBS-EP+2 mM DTT within a concentration range of 1.33 to 21.4 μg/ml, and the analyte HMGB1(disulfide) was diluted in HBS-EP buffer within a concentration range of 0.62 to 10 μg/ml. Both analytes were subsequently injected for 84 s over both channel A and B, where channel B was used as a blank surface for curve subtraction. Buffer injections were also made for surface subtractions. After dissociation, the surfaces were regenerated with a 30 s injection of 100 mM HCl followed by a 30 s injection of 20 mM NaOH. Data was collected by Attester Software and subsequently processed in the Evaluation Software. To calculate the kinetic parameters (kₐ and kd) and affinity constant (KD), the experimental data were fitted using a 1:1 or a 1:2 binding model.
(§5) Binding analysis of dimeric polypeptides targeting HMGB1: The interactions of a set of dimeric polypeptides, as well as one monomeric polypeptide, with HMGB1(reduced) and/or HMGB1(disulfide) were analyzed using an Attana A200® biosensor instrument by injecting various concentrations of HMGB1 over a surface containing captured polypeptides in fusion with ABD bound by immobilized HSA.

| Binder | Kd |
| --- | --- |
| B8 | 3 nM |
| B11 | 95 nM |
| B9 | 3.2 nM |
| B10 | 20 nM |
| B12 | 4.4 nM |

biological target: T1, HMGB1(disulfide), disulfide linked form …; test: QCM (Attana A200); polypeptide captured on HSA, HMGB1(disulfide) injected; 1:1 or 1:2 model, relevant kd (most represented)
Method: as §3, §4, §5

| Binder | koff |
| --- | --- |
| B13 | 0.00098 s⁻¹ |
| B8 | 0.00045 s⁻¹ |
| B11 | 0.00062 s⁻¹ |
| B9 | 0.00066 s⁻¹ |
| B10 | 0.0013 s⁻¹ |
| B14 | 0.0014 s⁻¹ |
| B12 | 0.001 s⁻¹ |

biological target: T4, human serum albumin (HSA) (human, UniProt P02768 25-609); test: QCM (Attana A200); capture on immobilized HSA
T4 construct: Immobilized on sensor chips to capture ABD (PP013) fusions
T4 sequence (P02768 25-609 limits assumed): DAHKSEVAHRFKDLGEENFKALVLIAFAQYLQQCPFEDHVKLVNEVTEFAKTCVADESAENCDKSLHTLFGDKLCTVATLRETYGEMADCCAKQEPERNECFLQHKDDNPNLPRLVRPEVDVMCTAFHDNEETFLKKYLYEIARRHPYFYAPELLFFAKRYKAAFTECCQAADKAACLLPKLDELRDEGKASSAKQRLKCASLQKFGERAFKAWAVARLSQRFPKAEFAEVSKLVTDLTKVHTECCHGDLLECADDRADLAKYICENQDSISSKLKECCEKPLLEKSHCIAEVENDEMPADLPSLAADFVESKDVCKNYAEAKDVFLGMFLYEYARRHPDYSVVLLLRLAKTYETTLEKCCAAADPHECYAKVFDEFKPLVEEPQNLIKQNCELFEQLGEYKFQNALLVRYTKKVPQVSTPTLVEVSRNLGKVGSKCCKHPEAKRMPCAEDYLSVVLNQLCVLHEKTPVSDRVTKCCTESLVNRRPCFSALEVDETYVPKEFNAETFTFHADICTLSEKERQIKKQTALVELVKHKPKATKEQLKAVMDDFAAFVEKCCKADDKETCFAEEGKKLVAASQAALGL

| Binder | binding result |
| --- | --- |
| B13 | binds |
| B8 | binds |
| B11 | binds |
| B9 | binds |
| B10 | binds |
| B14 | binds |
| B12 | binds |

biological target: T2, HMGB1(red), fully reduced form of …; test: QCM (Attana A200); polypeptide captured on HSA, HMGB1(red) injected, 2 mM DTT; 1:1 or 1:2 model, relevant kd (most represented)
Method: as §3, §4, §5

| Binder | koff |
| --- | --- |
| B8 | 0.00046 s⁻¹ |
| B11 | 0.013 s⁻¹ |
| B9 | 0.00042 s⁻¹ |
| B10 | 0.0004 s⁻¹ |
| B12 | 0.00055 s⁻¹ |

biological target: T1, HMGB1(disulfide), disulfide linked form …; test: QCM (Attana A200); polypeptide captured on HSA, HMGB1(disulfide) injected; 1:1 or 1:2 model, average KD
Method: as §3, §4, §5

| Binder | Kd |
| --- | --- |
| B13 | 5.4 nM |
| B8 | 18 nM |
| B11 | 97 nM |
| B9 | 32 nM |
| B10 | 35 nM |
| B14 | 11 nM |
| B12 | 70 nM |
